# Laboratory results from the supplement of paper PMC12217912.
# The list shows a part of the results. The full chains were built here from the parent and the listed change. Values near 0.05 are background.
# B1: TEV protease; numbered along this chain (parent)
# chain: MGESLFKGPRDYNPISSSICHLTNESDGHTTSLYGIGFGPFIITNKHLFRRNNGTLVVQSLHGVFKVKDTTTLQQHLVDGRDMIIIRMPKDFPPFPQKLKFREPQREERICLVTTNFQTKSMSSMVSDTSCTFPSGDGIFWKHWIQTKDGQCGSPLVSTRDGFIVGIHSASNFTNTNNYFTSVPKNFMELLTNQEAQQWVSGWRLNADSVLWGGHKVFMVKPEEPFQPVKEATQL
# Variants of: B1
# Experiment: raw area under fraction-flipped curve 0-4 h after induction (AUC4h, not background-subtracted), DNA-recorder readout of cleavage of the substrate (dimensionless); higher = more cleavage of the substrate by the protease variant
# Conditions: temperature: 34 °C; time window: 0-4 h after rhamnose induction
# Procedure: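 In vivo DNA recorder in E. coli TOP10(DE3) ΔrhaA at 34 °C. Each TEVp single-site mutant (parent TEVp 0) is paired with a single-site variant of the 7-mer TEVs (canonical ENLYFQ|S). The substrate sits between flexible linkers in a Bxb1-sfGFP-TEVs-SsrA fusion, so cleavage stabilises Bxb1 and speeds flipping of a recombination array, read by NGS. The value is the raw area under the fraction-flipped curve over 0-4 h after rhamnose induction (AUC4h), with ≥20 reads per time point. It is not background-subtracted; inactive controls average about 0.047.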
# 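Note: Bxb1 expression induced with 0.2% (w/v) L-rhamnose at OD600 near 0.5, cultures sampled hourly, flipped fraction per protease–substrate barcode pair counted by paired-end Illumina sequencing.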
Variant,area with substrate ENLAFQS,area with substrate ENLDFQS,area with substrate ENLEFQS,area with substrate ENLFFQS,area with substrate ENLKFQS,area with substrate ENLNFQS,area with substrate ENLQFQS,area with substrate ENLRFQS,area with substrate ENLSFQS,area with substrate ENLWFQS
MGESLFKGPRDYNPISSSICHLTNESDGHTTSLYGIGFGPFIITNKHLFRRNNGTLVVQSLHGVFKVKDTTTLQQHLVDGRDMIIIRMPKDFPPFPQKLKFREPQREERICLVTTNFQTKSMSSMVSDTSCTFPSGDGIFWKHWIQTLDGQCGSPLVSTRDGFIVGIHSASNFTNTNNYFTSVPKNFMELLTNQEAQQWVSGWRLNADSVLWGGHKVFMVKPEEPFQPVKEATQL [K148L],0.0685,0.0571,0.0614,0.0904,0.0779,0.0772,0.0595,0.0586,0.0501,0.046
MGESLFKGPRDYNPISSSICHLTNESDGHTTSLYGIGFGPFIITNKHLFRRNNGTLVVQSLHGVFKVKDTTTLQQHLVDGRDMIHIRMPKDFPPFPQKLKFREPQREERICLVTTNFQTKSMSSMVSDTSCTFPSGDGIFWKHWIQTKDGQCGSPLVSTRDGFIVGIHSASNFTNTNNYFTSVPKNFMELLTNQEAQQWVSGWRLNADSVLWGGHKVFMVKPEEPFQPVKEATQL [I85H],0.0484,0.0683,0.0562,0.057,,0.0547,0.0485,0.0529,0.0685,
MGESLFKGPRDYNPISSSICHLTNESDGHTTSLYGIGFGPFIITNKHLFRRNNGTLVVQSLHGVFKVKDTTTLQQHLVDGRDMIIIRMPKDFPPFPQKLKFREPQREERICLVTTNFQTKSMSSMVSDTSCTFPSGDGIFWKHWIQTKDGQCGSPLVSTRDGFIVGIHSASNFTNTNNYFTSVPKNFMELLTNQEAQQWVSGWRLNADHVLWGGHKVFMVKPEEPFQPVKEATQL [S209H],0.0598,0.0625,0.0663,0.0982,0.0812,0.0596,0.0766,,0.0703,
MGESLFKGPRDYNPISSSICHLTNESDGHTTSLYGIGFGPFIITNKHLFRRNNGTLVVQSLHGVFKVKDTTTLQQHLVDGRDMIIIRMPKDFPPFPQKLKFREPQREERICLVTTNFQTKSMSSMVSDTSCTFPSGDGIFWKHWIQTKDGQCGSPLVSTRDGFIVGIHSASNFTNTNNYFTSVPKNFMELLTQQEAQQWVSGWRLNADSVLWGGHKVFMVKPEEPFQPVKEATQL [N193Q],0.0573,0.0738,0.0588,0.0842,,,,,,
MGESLFKGPRDYNPISSSICHLTNESDGHTTSDYGIGFGPFIITNKHLFRRNNGTLVVQSLHGVFKVKDTTTLQQHLVDGRDMIIIRMPKDFPPFPQKLKFREPQREERICLVTTNFQTKSMSSMVSDTSCTFPSGDGIFWKHWIQTKDGQCGSPLVSTRDGFIVGIHSASNFTNTNNYFTSVPKNFMELLTNQEAQQWVSGWRLNADSVLWGGHKVFMVKPEEPFQPVKEATQL [L33D],0.0518,0.0567,0.056,0.0531,0.068,0.0542,,0.05,0.0503,0.0528
MGESLFKGPRDYNPISSSICHLTNESDGHTTSLYGIGFGPFIITNKHLFRRNNGTLVVQSLHGVFKVKDTTTLQQHLVDGRDMIIIRMPKDFPPFPQKLKFREPQREERICLVTTNFQTKSMSSMVSDTSCTFPSGDGIFWKHWIQTKDGQCGSPLVSTRGGFIVGIHSASNFTNTNNYFTSVPKNFMELLTNQEAQQWVSGWRLNADSVLWGGHKVFMVKPEEPFQPVKEATQL [D161G],0.0678,0.064,0.0595,0.0714,0.069,0.0529,0.0762,,0.0616,
MGESLFKGPRDYNPISSSICHLTNESDGHTTSLYGIGFGPFIITNKHLFRRNNGTLVVQSLHGVFKVKDTTTLQQHLVDGRDMIIIRMPKDFPPFPQKLKFREPQREERICLVTTNFQTKSMSSMVSDTSCNFPSGDGIFWKHWIQTKDGQCGSPLVSTRDGFIVGIHSASNFTNTNNYFTSVPKNFMELLTNQEAQQWVSGWRLNADSVLWGGHKVFMVKPEEPFQPVKEATQL [T132N],0.0774,,0.0483,0.0576,0.073,0.0594,,0.0687,,
MGESLFKGPRDYNPISSSICHLTNESDGHTTSLYGIGFGPFIITNKHLFRRNNGTLVVQSLHGVFKVKDTTTLQQHLVDGRDMIIIRMPKDFPPFPQKLKFREPQREERICLVTTNFQTKSMSSMVSDTSCTFPSGDGIFWKHWIQTKPGQCGSPLVSTRDGFIVGIHSASNFTNTNNYFTSVPKNFMELLTNQEAQQWVSGWRLNADSVLWGGHKVFMVKPEEPFQPVKEATQL [D149P],0.0697,0.0461,,,0.0654,0.0643,,,,

# Same assay, conditions: temperature: 34 °C; time window: 0-4 h after rhamnose induction
Variant,area with substrate ENLPFQS,area with substrate ENLVFQS,area with substrate ENLGFQS,area with substrate ENLHFQS,area with substrate ENLIFQS,area with substrate ENLTFQS,area with substrate ENLMFQS,area with substrate ENLCFQS,area with substrate ENLLFQS
MGESLFKGPRDYNPISSSICHLTNESDGHTTSLYGIGFGPFIITNKHLFRRNNGTLVVQSLHGVFKVKDTTTLQQHLVDGRDMIHIRMPKDFPPFPQKLKFREPQREERICLVTTNFQTKSMSSMVSDTSCTFPSGDGIFWKHWIQTKDGQCGSPLVSTRDGFIVGIHSASNFTNTNNYFTSVPKNFMELLTNQEAQQWVSGWRLNADSVLWGGHKVFMVKPEEPFQPVKEATQL [I85H],0.0246,0.0603,,,,,,,
MGESLFKGPRDYNPISSSICHLTNESDGHTTSLYGIGFGPFIITNKHLFRRNNGTLVVQSLHGVFKVKDTTTLQQHLVDGRDMIIIRMPKDFPPFPQKLKFREPQREERICLVTTNFQTKSMSSMVSDTSCTFPSGDGIFWKHWIQTKDGQCGSPLVSTRDGFIVGIHSASNFTNTNNYFTSVPKNFMELLTNQEAQQWVSGWRLNADHVLWGGHKVFMVKPEEPFQPVKEATQL [S209H],,,0.0743,0.0712,0.0869,0.0644,,,
MGESLFKGPRDYNPISSSICHLTNESDGHTTSLYGIGFGPFIITNKHLFRRNNGTLVVQSLHGVFKVKDTTTLQQHLVDGRDMIIIRMPKDFPPFPQKLKFREPQREERICLVTTNFQTKSMSSMVSDTSCTFPSGDGIFWKHWIQTKDGQCGSPLVSTRDGFIVGIHSASNFTNTNNYFTSVPKNFMELLTQQEAQQWVSGWRLNADSVLWGGHKVFMVKPEEPFQPVKEATQL [N193Q],0.112,,,0.0651,,,0.0726,,
MGESLFKGPRDYNPISSSICHLTNESDGHTTSDYGIGFGPFIITNKHLFRRNNGTLVVQSLHGVFKVKDTTTLQQHLVDGRDMIIIRMPKDFPPFPQKLKFREPQREERICLVTTNFQTKSMSSMVSDTSCTFPSGDGIFWKHWIQTKDGQCGSPLVSTRDGFIVGIHSASNFTNTNNYFTSVPKNFMELLTNQEAQQWVSGWRLNADSVLWGGHKVFMVKPEEPFQPVKEATQL [L33D],0.0391,,,0.057,,,0.0571,0.0553,0.0627
MGESLFKGPRDYNPISSSICHLTNESDGHTTSLYGIGFGPFIITNKHLFRRNNGTLVVQSLHGVFKVKDTTTLQQHLVDGRDMIIIRMPKDFPPFPQKLKFREPQREERICLVTTNFQTKSMSSMVSDTSCTFPSGDGIFWKHWIQTKDGQCGSPLVSTRGGFIVGIHSASNFTNTNNYFTSVPKNFMELLTNQEAQQWVSGWRLNADSVLWGGHKVFMVKPEEPFQPVKEATQL [D161G],0.0382,,0.0429,0.06,0.113,,,0.0481,0.0724
MGESLFKGPRDYNPISSSICHLTNESDGHTTSLYGIGFGPFIITNKHLFRRNNGTLVVQSLHGVFKVKDTTTLQQHLVDGRDMIIIRMPKDFPPFPQKLKFREPQREERICLVTTNFQTKSMSSMVSDTSCNFPSGDGIFWKHWIQTKDGQCGSPLVSTRDGFIVGIHSASNFTNTNNYFTSVPKNFMELLTNQEAQQWVSGWRLNADSVLWGGHKVFMVKPEEPFQPVKEATQL [T132N],0.0473,0.081,,0.0683,0.0554,,0.0526,,
MGESLFKGPRDYNPISSSICHLTNESDGHTTSLYGIGFGPFIITNKHLFRRNNGTLVVQSLHGVFKVKDTTTLQQHLVDGRDMIIIRMPKDFPPFPQKLKFREPQREERICLVTTNFQTKSMSSMVSDTSCTFPSGDGIFWKHWIQTKPGQCGSPLVSTRDGFIVGIHSASNFTNTNNYFTSVPKNFMELLTNQEAQQWVSGWRLNADSVLWGGHKVFMVKPEEPFQPVKEATQL [D149P],,0.0835,,0.0707,,,,,
